Measured values taken from PubChem BioAssay AID588855 (National Center for Advancing Translational Sciences (NCATS), 2011).
The whole screen tested about 410,000 compounds, of which about 5,000 (1.2%) were called active. The shares of active, inactive and inconclusive entries below differ from those in the screen. Calls follow the shape of the dose curve; as a rule, active = well fitted inhibition curve with a large enough effect; inconclusive = small, poorly fitted or top-dose-only effect; inactive = no such curve, though single readings can be large or run the other way. Potencies beside an inconclusive call are fits to weak or partial responses and may not hold up.

Assay: qHTS for Inhibitors of TGF-b; also: nearly all actives have a fitted effect of over 65% in size
Details: HepG2 CAGA-GFP TGF-b/SMAD3 reporter, GFP fluorescence, 18 h, TGF-beta stimulated, 500 pg/mL final; series mostly up to 46.1 µM
How it was run: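 Cell-based qHTS in HEPG2 carrying a CAGA-GFP Smad reporter; compounds added before 500 pg/mL final TGF-beta, 18 h incubation at 37 degrees C, GFP fluorescence quantified per cell by imaging cytometry.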
Potency is read from the fitted curve at half-maximal effect; tags tell the direction and shape of the fitted curve.

**Q.** With `C[C@@]12C(=O)OC(=O)[C@]1(C)C1CCC2O1` as the compound, how does the Potency read?
**A.** The Potency was active: 1.58 µM.

**Q.** Which Potency does the source give for `O=C(N/N=C/c1ccccc1[N+](=O)[O-])c1cccs1` here?
**A.** Its Potency is “inactive”.

**Q.** Which Potency does the source give for `Cc1nc([N+](=O)[O-])c(Br)n1CC(=O)c1ccc2ccccc2c1` here?
**A.** The Potency was inconclusive: 35.5 µM [inhibitor, single point].

**Q.** For `CCN(CC)C(=O)[C@H]1CC(CC(=O)NCc2cccc(C(F)(F)F)c2)C(=O)N2CCc3c([nH]c4ccc(OC)cc34)[C@]12C` (stereo partly specified), which Potency is on record?
**A.** The Potency was active: 8.91 µM.

**Q.** For `CCOC(=O)N1CCN(CC(=O)N2c3ccccc3Sc3ccccc32)CC1`, which Potency is on record?
**A.** The Potency was inconclusive: 35.5 µM [inhibitor, single point].

**Q.** With `CNS(=O)(=O)c1cn(CC(=O)N2CCN(c3ccccc3F)CC2)cc1S(=O)(=O)NC` as the compound, how does the Potency read?
**A.** Its Potency is “inactive”.

**Q.** For `COc1cccc(NC(=O)CSc2nc3ccc(NC(=O)c4cccs4)cc3s2)c1`, which Potency is on record?
**A.** The Potency was “inactive”.

**Q.** With `COc1ccc(N(CC(=O)NCCSCc2ccco2)S(=O)(=O)c2ccccc2)cc1OC` as the compound, how does the Potency read?
**A.** The Potency was “inactive”.

**Q.** Which Potency does the source give for `O=C(CSC1=NS(=O)(=O)c2ccccc2N1)NCCc1ccccc1` here?
**A.** Its Potency is inconclusive: 35.5 µM [inhibitor, partial curve, poor fit].

**Q.** Which Potency does the source give for `CCOC(=O)c1c(NC(=O)/C=C/c2ccc(C(C)C)cc2)sc2c1CCC2` here?
**A.** The Potency was “inactive”.

**Q.** For `Oc1ccc(CNc2ccc(F)cc2)c2cccnc12`, which Potency is on record?
**A.** The Potency was inconclusive: 22.4 µM [inhibitor, single point].

**Q.** For `O=C(N/N=C\c1ccc(Cl)cc1Cl)c1sccc1-n1cccc1`, which Potency is on record?
**A.** Its Potency is inconclusive: 12.6 µM [inhibitor, single point].

**Q.** For `CC(=O)Nc1ccc(S(=O)(=O)NCCC(=O)NNC(=O)c2ccccc2O)cc1`, which Potency is on record?
**A.** Its Potency is “inactive”.

**Q.** With `COC(=O)c1cc(=O)nc(NN=C2c3ccccc3-c3ccccc32)s1` as the compound, how does the Potency read?
**A.** The Potency was inconclusive: 3.55 µM [inhibitor, full curve, poor fit].

**Q.** For `CC1=C(C(=O)OC(C)C)C(c2cccs2)C(C(=O)OC(C)C)=C(C)N1`, which Potency is on record?
**A.** Its Potency is active: 17.8 µM.

**Q.** With `CCCCc1c(C)c(C#N)c2[nH]c3ccccc3n2c1=O` as the compound, how does the Potency read?
**A.** Its Potency is active: 3.16 µM.

**Q.** Which Potency does the source give for `CC(C)(C)NC(=O)c1cccc(NC(=O)Cc2cccs2)c1` here?
**A.** Its Potency is inconclusive: 35.5 µM [inhibitor, partial curve, poor fit].

**Q.** With `CCN(CC)CCNC(=O)c1c(C)oc2ncn(C)c(=O)c12` as the compound, how does the Potency read?
**A.** The Potency was “inactive”.

**Q.** Which Potency does the source give for `COc1ccccc1C1(O)C(=O)Nc2ccc(C)cc21` (stereo unspecified) here?
**A.** The Potency was “inactive”.

**Q.** Which Potency does the source give for `Cn1c(SCC(=O)N2c3ccccc3Sc3ccc(Cl)cc32)nnc1-c1ccco1` here?
**A.** The Potency was “inactive”.

**Q.** For `COc1ccc(-c2nn(-c3ccccc3)cc2/C=N/Nc2cccc(C(=O)O)c2)cc1`, which Potency is on record?
**A.** Its Potency is inconclusive: 5.62 µM [inhibitor, single point].

**Q.** For `O=C(COC(=O)CCc1ccc(S(=O)(=O)N2CCOCC2)cc1)Nc1cccc(Cl)c1`, which Potency is on record?
**A.** Its Potency is inconclusive: 5.01 µM [inhibitor, partial curve].

**Q.** For `Cc1oc2ccc(O)c(CN(C)Cc3ccccc3)c2c1C(=O)Nc1ccccc1`, which Potency is on record?
**A.** Its Potency is inconclusive: 12.6 µM [inhibitor, partial curve, poor fit].

**Q.** For `c1ccc(Cn2nnc3c(N4CCc5ccccc54)ncnc32)cc1`, which Potency is on record?
**A.** Its Potency is “inactive”.

**Q.** With `Cc1ccc(CN(Cc2ccco2)C(=S)Nc2ccccc2C)cc1` as the compound, how does the Potency read?
**A.** The Potency was inconclusive: 35.5 µM [inhibitor, single point].

**Q.** Which Potency does the source give for `COc1ccc(-n2cc(CNCc3cnc4ccccn34)c(-c3cccc(F)c3)n2)cc1` here?
**A.** The Potency was “inactive”.

**Q.** Which Potency does the source give for `CCn1c(/C=C/c2ccc(F)cc2)nc2ccccc2c1=O` here?
**A.** Its Potency is inconclusive: 15.8 µM [inhibitor, single point].

**Q.** With `Cc1cccc2nnc(-c3ccccc3)n12` as the compound, how does the Potency read?
**A.** The Potency was “inactive”.

**Q.** For `O=C(NC1CC1)c1cccc(Nc2ccc(-c3ccc4c(c3)OCCO4)nn2)c1`, which Potency is on record?
**A.** Its Potency is “inactive”.

**Q.** For `O=C(NC12CC3CC(CC(C3)C1)C2)c1ccc(-c2ccc(Br)cc2)o1`, which Potency is on record?
**A.** Its Potency is inconclusive: 20 µM [inhibitor, partial curve, poor fit].

**Q.** For `C=CCn1c(N)cc(=O)nc1SCC(=O)NC(C)c1ccccc1` (stereo unspecified), which Potency is on record?
**A.** The Potency was “inactive”.

**Q.** With `CCCCOC(=O)c1ccccc1N1C(=O)C2C3CCC(C3)C2C1=O` (stereo unspecified) as the compound, how does the Potency read?
**A.** The Potency was inconclusive: 1.12 µM [inhibitor, full curve, poor fit].

**Q.** For `CN1CCN(C2=Cc3ccccc3Sc3cc(F)ccc32)CC1`, which Potency is on record?
**A.** The Potency was “inactive”.

**Q.** Which Potency does the source give for `CS(=O)(=O)c1ccc(Cl)c(NC(=O)CSC(=S)N2CCCC2)c1` here?
**A.** Its Potency is “inactive”.

**Q.** With `O=C(CSc1nc2[nH]ncc2c(=O)[nH]1)NCc1ccc(F)cc1` as the compound, how does the Potency read?
**A.** Its Potency is inconclusive: 3.98 µM [inhibitor, single point].

**Q.** For `O=C(CCS(=O)(=O)c1nc(-c2cccs2)cc(C(F)(F)F)n1)Nc1ccc(OC(F)(F)F)cc1`, which Potency is on record?
**A.** Its Potency is “inactive”.

**Q.** Which Potency does the source give for `COC(=O)c1ccccc1NC(=O)C1=CC(c2ccc(C)cc2)=NS(=O)(=O)N1C` here?
**A.** Its Potency is “inactive”.

**Q.** For `CC1=NN(C(=O)c2cc(C)nn2C)C(O)(C(F)(F)F)C1` (stereo unspecified), which Potency is on record?
**A.** The Potency was “inactive”.

**Q.** For `Cn1c(-c2ccccc2)nc2cnccc21`, which Potency is on record?
**A.** The Potency was inconclusive: 5.62 µM [inhibitor, single point].

**Q.** For `O=C(c1cccc(F)c1)N1CCCC(C(=O)N2CCCCCC2)C1` (stereo unspecified), which Potency is on record?
**A.** The Potency was “inactive”.

**Q.** For `O=C(Cn1cncn1)NCCC(c1ccccc1)c1ccccc1`, which Potency is on record?
**A.** The Potency was “inactive”.

**Q.** Which Potency does the source give for `O=C(c1c(F)cccc1F)N(Cc1ccccn1)C1CC1` here?
**A.** The Potency was active: 12.6 µM.

**Q.** With `C/C(=N\NC(N)=S)c1cc(-c2ccccc2)c(-c2ccccc2)s1` as the compound, how does the Potency read?
**A.** The Potency was active: 12.6 µM.

**Q.** With `CCC1CCc2sc(C(=O)NCC3CCCO3)cc2C1` (stereo unspecified) as the compound, how does the Potency read?
**A.** The Potency was “inactive”.

**Q.** With `CC(C)(C)c1ccc(Cn2c(Cc3ccccc3)nc3ccccc32)cc1` as the compound, how does the Potency read?
**A.** Its Potency is active: 14.1 µM.

**Q.** For `CSc1cccc(NC(=S)N2CCCN(Cc3ccc(F)cc3)C2)c1`, which Potency is on record?
**A.** The Potency was inconclusive: 11.2 µM [inhibitor, partial curve].

**Q.** With `Cc1ccc(S(=O)(=O)N2CCC(=O)N(CCOCc3ccccc3C)CC2)cc1` as the compound, how does the Potency read?
**A.** Its Potency is inconclusive: 11.2 µM [inhibitor, partial curve].

**Q.** Which Potency does the source give for `CCOc1ccc(-c2nonc2NC(=O)c2oc3ccc(F)cc3c2C)cc1` here?
**A.** Its Potency is inconclusive: 4.47 µM [inhibitor, single point].

**Q.** For `CCCNC(=O)C1(C)CCCN(C(=O)c2cc(F)cc(F)c2)C1` (stereo unspecified), which Potency is on record?
**A.** Its Potency is “inactive”.

**Q.** For `COc1ccc(/C=N/Nc2ncnc3sc(C)c(C)c23)cc1`, which Potency is on record?
**A.** The Potency was inconclusive: 14.1 µM [inhibitor, single point].

**Q.** Which Potency does the source give for `CCOC(=O)c1c(CSC(=N)N)n(-c2ccccc2)c2cc(Br)c(OC(C)=O)cc12` here?
**A.** The Potency was inconclusive: 31.6 µM [inhibitor, single point].
